{"source": "PubChem BioAssay AID1468", "about": "(National Center for Advancing Translational Sciences (NCATS), 2008)", "note": "About 1,100 (0.39%) of roughly 280,000 compounds were called active. Inconclusive means that the source gave no clear call. Such entries were picked first, then a sample of the others. Calls follow the shape of the dose curve; as a rule, active = well fitted inhibition curve with a large enough effect; inconclusive = small, poorly fitted or top-dose-only effect, or effect the other way; inactive = flat fitted curve, though single readings scatter. No potency is given beside an inconclusive call; the fits are too rough. % is scaled to controls: 0 for no effect and ±100 for the full control effect; potency is read from the fitted curve at half-maximal effect; tags tell the direction and shape of the fitted curve."}
{"target": "Microtubule-associated protein tau (Homo sapiens) (UniProt P10636)", "sequence (P10636 whole entry, looked up)": "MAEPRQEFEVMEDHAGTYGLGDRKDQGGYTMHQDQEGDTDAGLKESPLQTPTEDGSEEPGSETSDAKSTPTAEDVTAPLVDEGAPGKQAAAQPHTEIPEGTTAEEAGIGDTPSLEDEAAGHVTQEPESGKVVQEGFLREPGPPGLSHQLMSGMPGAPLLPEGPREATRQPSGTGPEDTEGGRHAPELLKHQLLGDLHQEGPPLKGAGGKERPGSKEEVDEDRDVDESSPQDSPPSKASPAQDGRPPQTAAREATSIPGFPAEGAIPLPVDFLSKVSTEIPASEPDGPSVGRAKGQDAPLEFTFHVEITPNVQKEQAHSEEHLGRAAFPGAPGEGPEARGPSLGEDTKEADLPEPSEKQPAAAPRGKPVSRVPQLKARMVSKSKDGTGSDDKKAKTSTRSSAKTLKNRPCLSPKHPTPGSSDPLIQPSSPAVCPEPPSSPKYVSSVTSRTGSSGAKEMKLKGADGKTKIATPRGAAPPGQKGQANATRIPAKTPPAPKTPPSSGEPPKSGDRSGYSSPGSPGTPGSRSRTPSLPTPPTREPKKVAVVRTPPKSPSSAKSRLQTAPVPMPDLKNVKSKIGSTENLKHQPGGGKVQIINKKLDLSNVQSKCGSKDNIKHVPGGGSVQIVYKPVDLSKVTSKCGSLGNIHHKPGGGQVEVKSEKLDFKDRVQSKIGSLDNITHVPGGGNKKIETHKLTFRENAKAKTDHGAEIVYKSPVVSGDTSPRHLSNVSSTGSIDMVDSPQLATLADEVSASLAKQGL", "assay": "qHTS for Inhibitors of Tau Fibril Formation, Fluorescence Polarization; also: nearly all actives have a fitted effect of over 55% in size", "conditions": "K18 P301L tau heparin fibrillization, Alexa594 FP, 6 h; series mostly up to 57.7 µM; activity, negative = inhibition: at the top concentration", "summary_of_the_method": "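Heparin (20 uM) drove fibril formation of recombinant tau K18 P301L, 15 uM unlabeled with 0.24 uM Alexa 594 label, for 6 hr at 37 C in 100 mM sodium acetate pH 7. Fluorescence polarization (555/632 nm) read 1 hr after 30 uM ThT.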"}
{"smiles": "COc1cccc(N2CCN(C(=O)CN3CCSc4ccccc43)CC2)c1", "activity, negative = inhibition": "inactive: 1.75%"}
{"smiles": "O=C(N/N=C/c1ccco1)/C(=C/c1cccc([N+](=O)[O-])c1)NC(=O)c1ccccc1", "activity, negative = inhibition": "inactive: -1%"}
{"smiles": "Cc1cc(C)nc(SCC(=O)NN)n1", "activity, negative = inhibition": "inactive: -5.76%"}
{"smiles": "CCCS(=O)(=O)N1CCC(C(=O)NCCOC)CC1", "activity, negative = inhibition": "inactive: 6.27%"}
{"smiles": "Cc1cccc(-c2nc(CN3CCCC(C(=O)NCCc4ccc(Cl)cc4)C3)c(C)o2)c1", "note": "(centres undefined)", "activity, negative = inhibition": "inactive: 11.3%"}
{"smiles": "CC(C)Oc1ccc(C(=O)Nc2ccc(N3CCCC3)cc2)cc1", "Potency": "inconclusive [activator, single point]"}
{"smiles": "N#CC(c1ccccc1)c1ccc2c(C(F)(F)F)cc(C(F)(F)F)nc2n1", "note": "(centres undefined)", "Potency": "inconclusive [activator, single point]"}
{"smiles": "COc1ccccc1NS(=O)(=O)c1cccc(-n2c(O)c(C=Nc3ccccc3C(=O)O)c3ccccc3c2=O)c1", "activity, negative = inhibition": "inactive: -16.6%"}
{"smiles": "COC(=O)C(=Cc1ccccc1[N+](=O)[O-])C(=O)OC", "Potency": "inconclusive [inhibitor, single point]"}
{"smiles": "COC(=O)c1ccccc1NC(=O)CSc1nc(C)c(Cl)c(C)c1C#N", "Potency": "inconclusive [inhibitor, partial curve]"}
{"smiles": "O=C(NCc1n[nH]c(=S)n1-c1ccc(Cl)c(Cl)c1)c1ccc(S(=O)(=O)N2CCOCC2)cc1", "activity, negative = inhibition": "inactive: -7.76%"}
{"smiles": "O=C(NCc1ccccc1)C(=O)Nc1c2c(nn1-c1ccccc1)CSC2", "activity, negative = inhibition": "inactive: -10.4%"}
{"smiles": "O=C(COC(=O)c1ccccc1NCc1ccco1)Nc1ccc2c(c1)OCO2", "Potency": "inconclusive [inhibitor, single point]"}
{"smiles": "COc1ccc(-n2c(=S)[nH]c3sc(-c4ccccc4)cc3c2=O)c(OC)c1", "activity, negative = inhibition": "inactive: 3.33%"}
{"smiles": "CC(C)(C)Nc1oc(-c2ccccc2)nc1-c1ccccc1F", "Potency": "inconclusive [inhibitor, single point]"}
{"smiles": "COc1ccc(S(=O)(=O)NCCc2nnc3ccc(SCC(=O)Nc4nc(C)cs4)nn23)cc1", "Potency": "inconclusive [inhibitor, single point]"}
{"smiles": "COc1ccc(-c2nc(CNS(=O)(=O)c3cccc(F)c3)cs2)cc1", "activity, negative = inhibition": "inactive: -1.75%"}
{"smiles": "N#Cc1ncc(-c2ccc3c(c2)OCCOCCOCCOCCO3)nc1C#N", "Potency": "inconclusive [inhibitor, partial curve]"}
{"smiles": "c1ccc2[nH]c(CSc3nc4ccccc4s3)nc2c1", "activity, negative = inhibition": "inactive: 3.39%"}
{"smiles": "Cc1cccc(NC(=O)c2oc3ccccc3c2NC(=O)Cc2coc3ccc(C(C)C)cc23)c1", "Potency": "inconclusive [inhibitor, full curve]"}
{"smiles": "COC(=O)c1[nH]c2ccccc2c1NC(=O)CN1CCN(c2cccc(OC)c2)C(C)C1", "note": "(centres undefined)", "Potency": "inconclusive [activator, partial curve]"}
{"smiles": "Fc1ccc(NC(=S)NCCc2ccc(Cl)cc2)cc1", "Potency": "inconclusive [inhibitor, single point]"}
{"smiles": "O=c1oc2ccccc2cc1-c1nc2ccccc2o1", "activity, negative = inhibition": "inactive: 1.71%"}
{"smiles": "O=C(CCN1C(=O)/C(=C/c2ccc3c(c2)OCO3)SC1=S)NNC(=O)c1cccnc1", "Potency": "inconclusive [activator, partial curve]"}
{"smiles": "COCCNC(=O)CN1C(=O)c2cccnc2Oc2ccc(Cl)cc21", "activity, negative = inhibition": "inactive: 0.636%"}
{"smiles": "CC(C)CC1(C(=O)NCCc2c[nH]c3ccccc23)C=CCN1C(=O)c1ccccc1", "note": "(centres undefined)", "Potency": "inactive"}
{"smiles": "S=c1[nH]nc(-c2ccco2)n1/N=C/c1c(Cl)cccc1Cl", "activity, negative = inhibition": "inactive: -6.94%"}
{"smiles": "CCOc1ccc(NC(=O)N2CCN3CCCCC3C2)cc1", "note": "(centres undefined)", "activity, negative = inhibition": "inactive: 3.62%"}
{"smiles": "CCOC(=O)c1ccc(N2C(=O)c3n[nH]c(-c4ccco4)c3C2c2cccc(O)c2)cc1", "note": "(centres undefined)", "Potency": "inconclusive [inhibitor, partial curve, poor fit]"}
{"smiles": "O=C(Cn1cnc2onc(-c3ccc(Cl)cc3)c2c1=O)Nc1ccc(F)cc1", "Potency": "inconclusive [inhibitor, partial curve]"}
{"smiles": "CC(C)(C)C(=O)NC(=S)Nc1ccccc1C(=O)Nc1ccccc1", "activity, negative = inhibition": "inactive: -6.02%"}
{"smiles": "Cc1ccc(CNc2oc(C)nc2C#N)cc1", "Potency": "inconclusive [inhibitor, single point]"}
{"smiles": "C#CCOCCOCCOCCNc1nc(N2CCN(C(=O)[C@H](CCCCN)n3cc([C@@H](N)CC(C)C)nn3)CC2)nc(N2CCN(C(=O)[C@H](Cc3cc4ccccc4[nH]3)n3cc([C@@H](N)Cc4ccc(O)cc4)nn3)CC2)n1", "Potency": "inconclusive [inhibitor, single point]"}
{"smiles": "Cc1ccc(-n2c(N)c(-c3nc4ccccc4n3C)sc2=S)cc1", "Potency": "inconclusive [inhibitor, single point]"}
{"smiles": "Cc1ccc(C(=O)Nc2cccc(C(=O)OCc3cc(=O)n4nc(C5CC5)sc4n3)c2)cc1", "Potency": "inconclusive [inhibitor, full curve, poor fit]"}
{"smiles": "Cc1cccc(C(=O)Oc2c(Sc3ccccc3)c(C)nn2C(C)(C)C)c1", "activity, negative = inhibition": "inactive: -5.85%"}
{"smiles": "CCOc1ccc(NS(=O)(=O)c2ccc(NS(=O)(=O)c3ccc(SC)cc3)cc2)cc1", "Potency": "inconclusive [inhibitor, partial curve]"}
{"smiles": "COc1cccc(C(=O)/C=C/Nc2ccc(S(=O)(=O)Nc3cccc(C(C)=O)c3)cc2)c1", "Potency": "inconclusive [inhibitor, partial curve]"}
{"smiles": "CC(C)(C)CN1CCNC(=O)C1CC(=O)NCCc1ccccc1C(F)(F)F", "note": "(centres undefined)", "Potency": "inconclusive [inhibitor, single point]"}
{"smiles": "COc1cc(/C=c2\\s/c(=C\\C(=O)C(C)(C)C)[nH]c2=O)cc(OC)c1OC", "activity, negative = inhibition": "inactive: -7.24%"}
{"smiles": "Cc1ccc(-c2nc(N3CCCC(C)C3)c3ccccc3n2)cc1", "note": "(centres undefined)", "Potency": "inconclusive [inhibitor, full curve, poor fit]"}
{"smiles": "COc1ccc(C2NC(=O)C(C#N)=C(S)N2c2ccccc2)cc1OC", "note": "(centres undefined)", "Potency": "inconclusive [inhibitor, partial curve]"}
{"smiles": "COc1ccc(/C=N/NC(=O)CCCOc2ccc(Cl)cc2Cl)cc1[N+](=O)[O-]", "Potency": "inconclusive [inhibitor, partial curve]"}
{"smiles": "Cc1ccc(C)c(NS(=O)(=O)c2ccc(NC(=O)CSc3ccc(Cl)cc3)cc2)c1", "Potency": "inconclusive [inhibitor, partial curve]"}
{"smiles": "CC(=O)Nc1ccc(-c2csc(NNC(=O)c3ccc(C)cc3)n2)cc1", "Potency": "inconclusive [inhibitor, partial curve]"}
{"smiles": "CCOc1nc(Nc2ccc(OC)c(Cl)c2)nc(N2CCN(c3ccc(OC)cc3)CC2)n1", "Potency": "inconclusive [activator, full curve, poor fit]"}
{"smiles": "C#CCn1c(=NC(=O)CN2C(=O)CCC2=O)sc2cccc(OC)c21", "activity, negative = inhibition": "inactive: 1.42%"}
{"smiles": "COC(=O)C1=C(C)N(C(C)C)C(=O)C1(NC(=O)c1ccc(C(C)(C)C)cc1)C(F)(F)F", "note": "(centres undefined)", "activity, negative = inhibition": "inactive: -2.76%"}
{"smiles": "CC(=O)c1ccc(NS(=O)(=O)c2ccccc2)cc1", "activity, negative = inhibition": "inactive: 4.82%"}
{"smiles": "CC(C)Nc1nc2c(-c3cccc(Br)c3)nnn2c2ccccc12", "Potency": "inconclusive [inhibitor, partial curve, poor fit]"}
{"smiles": "O=c1c2ccccc2[nH]c(=S)n1CCN1CCC(=C(c2ccc(F)cc2)c2ccc(F)cc2)CC1", "Potency": "inconclusive [inhibitor, partial curve]"}
{"smiles": "COc1ccc(C(=O)N/N=C/C2CC=CCC2)cc1OC", "note": "(centres undefined)", "activity, negative = inhibition": "inactive: 3.88%"}
{"smiles": "CC1(C)C(=O)OC(c2cccc([N+](=O)[O-])c2)C2(CCCCC2)C1=O", "note": "(centres undefined)", "activity, negative = inhibition": "inactive: -1.48%"}
{"smiles": "O=C1C(O)=C(O)C(=O)C(O)=C1O", "Potency": "inconclusive [inhibitor, partial curve]"}
{"smiles": "COc1ccc(OC)c(/C=c2\\sc3nc(-c4cccs4)nn3c2=O)c1", "Potency": "inconclusive [inhibitor, single point]"}
{"smiles": "O=C1Nc2ccc(Br)cc2/C1=C/C1CC=CCC1", "note": "(centres undefined)", "Potency": "inconclusive [inhibitor, single point]"}
{"smiles": "COc1cc(OC)c(NC(=O)Nc2ccc(OC)c(OC)c2)cc1Cl", "Potency": "inconclusive [activator, partial curve]"}
{"smiles": "COc1cccc(C(c2c(O)nc(SC)n(C)c2=O)c2c(O)nc(SC)n(C)c2=O)c1", "Potency": "inconclusive [inhibitor, partial curve]"}
{"smiles": "COc1ccccc1C(=O)NC(=S)Nc1ccc(NC(=O)c2ccco2)cc1", "Potency": "inconclusive [inhibitor, partial curve, poor fit]"}
{"smiles": "CCOC(=O)CN(C(=O)COc1nc(-c2ccccc2)cc(C)c1C#N)c1cccc(OC)c1", "Potency": "inconclusive [inhibitor, single point]"}
{"smiles": "Cc1n[nH]c(=S)n1/N=C/c1ccccc1", "activity, negative = inhibition": "inactive: -2.78%"}
{"smiles": "On1onc2c3cc(-c4ccccc4)nc3ccc21", "Potency": "inconclusive [inhibitor, single point]"}
{"smiles": "CCCOc1ccc(Oc2nc(NCC(C)C)nc(N(C)C)n2)nn1", "activity, negative = inhibition": "inactive: -0.686%"}
{"smiles": "C(=N\\Nc1nc2ccccc2[nH]1)/c1ccc2ncccc2c1", "Potency": "inconclusive [activator, single point]"}
{"smiles": "CCC(Sc1nnc(-c2ccc(OC)c(OC)c2)c(-c2ccc(OC)c(OC)c2)n1)C(=O)NC1CCCC1", "note": "(centres undefined)", "Potency": "inconclusive [inhibitor, single point]"}
{"smiles": "Cc1[nH][nH]c(=O)c1C(c1ccc(-c2cccc(Cl)c2)o1)c1c(C)[nH][nH]c1=O", "Potency": "inconclusive [inhibitor, partial curve]"}
{"smiles": "Clc1ccc(-c2noc(-c3cccnc3NCc3ccco3)n2)cc1", "Potency": "inconclusive [inhibitor, single point]"}
{"smiles": "CC(=O)Nc1ccc(-c2csc(N/N=C(/C)c3ccccc3)n2)cc1", "Potency": "inconclusive [inhibitor, single point]"}
{"smiles": "O=C(NCCc1c[nH]c2ccccc12)C1CCC(Cn2c(=S)[nH]c3ccccc3c2=O)CC1", "note": "(centres undefined)", "activity, negative = inhibition": "inactive: 0.154%"}
